The target in experiment [1] is full-length human p75 neurotrophin receptor fused at the cytoplasmic C-terminus to GFP (human) (UniProt P08138). Nature of the experiment: flow cytometry on cells; B7-1–Fc or B7-1N82E–Fc titrated against cells expressing CTLA-4, CD28 or p75NTR; only the binder purified. On the technique in general: A flow cytometer gives signals particle by particle.
For experiment [2] the target is unchanged. Nature of the experiment: flow cytometry on cells; ligand competition: NGF against hB7-1 for binding to p75NTR; competition at micromolar NGF; only the binder purified.
For experiment [3] the target is unchanged. In words: flow cytometry on cells; competition: B7-1–Fc on fluorescent protein A beads bound to HEK293 cells expressing p75NTR; CTLA-4–Fc, CD28-Fc or isotype control titrated in; only the binder purified.
The target is the same in experiment [4]. In words: flow cytometry on cells; cell-cell conjugates: HEK293F cells expressing 92 B7-1–mCherry point mutants (IgV domain) against HEK293F cells expressing CTLA-4–GFP, CD28-GFP or p75NTR-GFP; percent of WT binding.
Experiment [5] has as its target human p75 neurotrophin receptor-GFP (human) (UniProt P08138). Nature of the experiment: flow cytometry on cells; recombinant B7-1-Fc or B7-1N82E-Fc titrated (up to 1.2 uM) onto cells expressing CTLA-4, CD28 or p75NTR; detected with an anti-mouse 647 labelled antibody; EC50 calculated; only the binder purified.
Experiment [6] has the same target. In words: flow cytometry on cells; cell-cell binding of sorted stable HEK293 lines (B7-1-mCherry, B7-1N82E-mCherry, B7-2-mCherry) with GFP-tagged query cells; % cell bound.
The target in another experiment is mCD28-GFP (mouse) (UniProt P31041). The experiment is described as above.
The next experiment addresses mCTLA4-GFP (mouse) (UniProt P09793). The description is as above.
A further experiment deals with T1, SORCS1-GFP (UniProt Q8WY21).
T1 sequence: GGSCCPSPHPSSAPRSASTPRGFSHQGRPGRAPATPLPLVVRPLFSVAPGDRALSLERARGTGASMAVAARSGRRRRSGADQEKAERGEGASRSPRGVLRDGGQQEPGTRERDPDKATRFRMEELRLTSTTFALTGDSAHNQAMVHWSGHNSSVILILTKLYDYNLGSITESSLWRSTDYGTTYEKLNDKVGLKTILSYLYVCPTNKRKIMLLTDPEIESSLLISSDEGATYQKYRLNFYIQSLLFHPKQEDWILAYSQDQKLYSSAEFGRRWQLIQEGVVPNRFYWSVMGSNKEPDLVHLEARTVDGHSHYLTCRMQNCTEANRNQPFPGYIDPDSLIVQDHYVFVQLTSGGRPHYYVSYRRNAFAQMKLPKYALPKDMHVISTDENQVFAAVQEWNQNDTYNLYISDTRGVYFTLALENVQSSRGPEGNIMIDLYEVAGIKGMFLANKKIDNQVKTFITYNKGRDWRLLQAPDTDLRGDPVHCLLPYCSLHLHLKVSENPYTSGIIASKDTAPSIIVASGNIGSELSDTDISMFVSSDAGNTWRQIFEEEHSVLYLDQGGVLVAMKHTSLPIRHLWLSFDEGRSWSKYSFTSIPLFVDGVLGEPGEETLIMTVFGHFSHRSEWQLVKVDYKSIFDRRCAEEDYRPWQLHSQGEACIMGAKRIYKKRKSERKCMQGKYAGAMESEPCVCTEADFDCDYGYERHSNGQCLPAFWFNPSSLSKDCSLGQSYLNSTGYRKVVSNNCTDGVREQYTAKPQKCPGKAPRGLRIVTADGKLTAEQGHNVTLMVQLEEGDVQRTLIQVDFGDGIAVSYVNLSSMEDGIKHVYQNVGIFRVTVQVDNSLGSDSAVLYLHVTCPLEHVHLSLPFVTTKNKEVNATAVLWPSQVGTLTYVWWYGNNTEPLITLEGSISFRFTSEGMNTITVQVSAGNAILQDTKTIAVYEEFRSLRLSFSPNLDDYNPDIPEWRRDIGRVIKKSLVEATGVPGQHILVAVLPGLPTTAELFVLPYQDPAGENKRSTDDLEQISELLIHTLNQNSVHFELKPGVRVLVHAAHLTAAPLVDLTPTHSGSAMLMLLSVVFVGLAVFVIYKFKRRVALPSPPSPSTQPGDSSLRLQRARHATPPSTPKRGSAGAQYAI
Nature of the experiment: flow cytometry on cells; cell-cell binding of individually transfected cells: B7-1-mCherry cells mixed with cells expressing a GFP-tagged receptor; double-positive events as % bound; PBS 0.2% BSA, pH 7.4.

Amino acid sequences for entries named in this document (tags omitted). A change or cut given only in a name is not applied to a line headed by its entry. Chains listed by the source or under a name are the forms on record and can include a tag or linker. Residues count along the entry.
full-length human p75 neurotrophin receptor fused at the cytoplasmic C-terminus to GFP (P08138, residues 29-427): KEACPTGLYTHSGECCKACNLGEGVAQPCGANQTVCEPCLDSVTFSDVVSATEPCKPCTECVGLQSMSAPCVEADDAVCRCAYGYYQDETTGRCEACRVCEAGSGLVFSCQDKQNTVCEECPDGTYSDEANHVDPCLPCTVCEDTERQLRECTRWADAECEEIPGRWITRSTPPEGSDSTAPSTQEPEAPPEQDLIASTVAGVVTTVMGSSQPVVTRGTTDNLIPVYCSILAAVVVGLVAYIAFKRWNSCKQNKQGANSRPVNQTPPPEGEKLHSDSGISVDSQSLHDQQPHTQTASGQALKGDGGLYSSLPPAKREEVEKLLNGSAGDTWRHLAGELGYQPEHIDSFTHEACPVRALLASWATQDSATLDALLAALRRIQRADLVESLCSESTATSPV
p75^NTR F136D-GFP (P08138, form named): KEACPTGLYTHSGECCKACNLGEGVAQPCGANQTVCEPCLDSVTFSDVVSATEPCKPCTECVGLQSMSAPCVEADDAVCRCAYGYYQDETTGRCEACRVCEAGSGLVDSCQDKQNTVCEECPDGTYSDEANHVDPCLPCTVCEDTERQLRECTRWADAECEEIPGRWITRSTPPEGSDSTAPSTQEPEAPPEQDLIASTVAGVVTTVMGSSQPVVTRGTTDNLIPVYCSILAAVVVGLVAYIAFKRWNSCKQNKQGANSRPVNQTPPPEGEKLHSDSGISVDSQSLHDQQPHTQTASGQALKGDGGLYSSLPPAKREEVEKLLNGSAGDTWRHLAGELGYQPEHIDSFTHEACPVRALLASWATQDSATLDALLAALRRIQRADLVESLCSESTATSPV
p75^NTR L165A-GFP (P08138, form named): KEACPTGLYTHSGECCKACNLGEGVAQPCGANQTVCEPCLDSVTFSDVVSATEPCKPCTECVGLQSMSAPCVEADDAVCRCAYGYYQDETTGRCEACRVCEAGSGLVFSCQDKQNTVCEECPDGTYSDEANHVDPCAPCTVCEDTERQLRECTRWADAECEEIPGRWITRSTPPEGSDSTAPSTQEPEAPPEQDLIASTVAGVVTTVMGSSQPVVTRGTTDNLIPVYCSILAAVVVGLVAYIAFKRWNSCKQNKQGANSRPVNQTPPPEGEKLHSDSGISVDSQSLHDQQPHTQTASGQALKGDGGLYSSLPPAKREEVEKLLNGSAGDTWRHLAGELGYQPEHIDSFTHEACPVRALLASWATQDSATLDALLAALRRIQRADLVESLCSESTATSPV
p75^NTR P150A-GFP (P08138, form named): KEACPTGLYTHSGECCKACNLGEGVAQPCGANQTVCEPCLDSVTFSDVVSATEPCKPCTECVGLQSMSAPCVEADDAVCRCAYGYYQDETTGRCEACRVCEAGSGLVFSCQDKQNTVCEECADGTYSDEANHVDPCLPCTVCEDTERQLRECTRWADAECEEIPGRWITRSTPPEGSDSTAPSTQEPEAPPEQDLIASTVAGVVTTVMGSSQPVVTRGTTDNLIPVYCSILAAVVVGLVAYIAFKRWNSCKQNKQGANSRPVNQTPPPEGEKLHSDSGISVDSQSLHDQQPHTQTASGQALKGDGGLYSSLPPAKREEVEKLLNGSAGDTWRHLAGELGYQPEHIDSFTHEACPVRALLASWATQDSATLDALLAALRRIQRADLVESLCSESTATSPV
p75^NTR P150D-GFP (P08138, form named): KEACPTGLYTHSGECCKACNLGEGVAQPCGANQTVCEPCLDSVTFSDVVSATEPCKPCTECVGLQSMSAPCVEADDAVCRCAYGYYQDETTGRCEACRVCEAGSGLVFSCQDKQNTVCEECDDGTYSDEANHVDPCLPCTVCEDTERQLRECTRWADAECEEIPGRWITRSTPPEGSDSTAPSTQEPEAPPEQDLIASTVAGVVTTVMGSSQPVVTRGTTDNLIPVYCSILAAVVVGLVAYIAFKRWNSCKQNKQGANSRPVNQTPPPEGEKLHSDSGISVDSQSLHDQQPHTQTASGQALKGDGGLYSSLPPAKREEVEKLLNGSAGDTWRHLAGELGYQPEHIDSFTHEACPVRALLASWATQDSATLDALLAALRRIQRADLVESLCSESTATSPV
p75^NTR S137A-GFP (P08138, form named): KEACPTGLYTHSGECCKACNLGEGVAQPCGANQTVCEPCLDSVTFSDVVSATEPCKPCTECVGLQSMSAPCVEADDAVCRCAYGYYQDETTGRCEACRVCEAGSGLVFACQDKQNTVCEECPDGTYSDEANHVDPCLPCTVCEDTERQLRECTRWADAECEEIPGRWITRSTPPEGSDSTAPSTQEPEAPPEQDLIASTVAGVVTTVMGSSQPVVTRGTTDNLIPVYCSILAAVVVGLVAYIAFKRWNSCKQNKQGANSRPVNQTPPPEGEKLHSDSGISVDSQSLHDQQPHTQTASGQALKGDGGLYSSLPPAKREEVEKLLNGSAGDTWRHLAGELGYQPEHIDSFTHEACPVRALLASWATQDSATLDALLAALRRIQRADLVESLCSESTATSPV
p75^NTR S137D-GFP (P08138, form named): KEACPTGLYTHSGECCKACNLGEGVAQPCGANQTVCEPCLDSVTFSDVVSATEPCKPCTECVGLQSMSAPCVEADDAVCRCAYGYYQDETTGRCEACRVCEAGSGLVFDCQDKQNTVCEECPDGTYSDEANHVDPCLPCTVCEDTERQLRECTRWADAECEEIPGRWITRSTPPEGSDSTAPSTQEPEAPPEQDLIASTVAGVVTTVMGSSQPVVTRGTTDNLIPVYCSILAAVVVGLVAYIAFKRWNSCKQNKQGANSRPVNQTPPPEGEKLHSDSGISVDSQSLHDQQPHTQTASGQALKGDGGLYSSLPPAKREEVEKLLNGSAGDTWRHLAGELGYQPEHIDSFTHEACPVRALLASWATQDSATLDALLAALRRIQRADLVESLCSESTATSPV
UniProt Q96PQ0, residues 51-1159: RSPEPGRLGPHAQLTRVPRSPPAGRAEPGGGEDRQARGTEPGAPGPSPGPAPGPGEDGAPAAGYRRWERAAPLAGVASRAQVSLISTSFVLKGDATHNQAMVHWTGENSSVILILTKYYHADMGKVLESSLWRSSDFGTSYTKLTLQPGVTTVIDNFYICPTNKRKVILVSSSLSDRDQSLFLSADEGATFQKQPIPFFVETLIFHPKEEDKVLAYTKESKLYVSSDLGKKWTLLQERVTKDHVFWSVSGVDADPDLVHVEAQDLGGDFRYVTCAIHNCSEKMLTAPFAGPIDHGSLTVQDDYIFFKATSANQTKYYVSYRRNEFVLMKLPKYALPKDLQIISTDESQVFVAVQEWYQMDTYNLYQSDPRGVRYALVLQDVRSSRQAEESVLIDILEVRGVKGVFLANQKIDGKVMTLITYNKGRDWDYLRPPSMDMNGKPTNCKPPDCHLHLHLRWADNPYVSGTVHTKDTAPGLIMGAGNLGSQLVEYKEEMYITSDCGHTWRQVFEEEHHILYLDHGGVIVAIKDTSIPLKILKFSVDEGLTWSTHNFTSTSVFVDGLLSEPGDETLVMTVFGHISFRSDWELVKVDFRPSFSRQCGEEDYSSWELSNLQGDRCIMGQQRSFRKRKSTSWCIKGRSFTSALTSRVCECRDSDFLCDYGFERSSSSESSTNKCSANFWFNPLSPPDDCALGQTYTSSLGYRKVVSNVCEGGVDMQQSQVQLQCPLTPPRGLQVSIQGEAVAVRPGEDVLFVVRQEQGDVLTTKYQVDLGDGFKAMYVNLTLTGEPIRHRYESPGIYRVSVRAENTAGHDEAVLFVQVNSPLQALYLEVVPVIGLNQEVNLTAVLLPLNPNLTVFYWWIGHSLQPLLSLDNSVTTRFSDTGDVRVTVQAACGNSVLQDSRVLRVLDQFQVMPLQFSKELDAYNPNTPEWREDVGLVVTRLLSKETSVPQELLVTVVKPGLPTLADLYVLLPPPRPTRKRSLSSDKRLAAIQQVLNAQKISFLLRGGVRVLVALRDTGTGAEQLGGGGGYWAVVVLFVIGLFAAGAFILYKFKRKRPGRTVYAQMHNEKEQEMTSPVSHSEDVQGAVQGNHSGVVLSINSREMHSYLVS
UniProt P10586, residues 30-1907: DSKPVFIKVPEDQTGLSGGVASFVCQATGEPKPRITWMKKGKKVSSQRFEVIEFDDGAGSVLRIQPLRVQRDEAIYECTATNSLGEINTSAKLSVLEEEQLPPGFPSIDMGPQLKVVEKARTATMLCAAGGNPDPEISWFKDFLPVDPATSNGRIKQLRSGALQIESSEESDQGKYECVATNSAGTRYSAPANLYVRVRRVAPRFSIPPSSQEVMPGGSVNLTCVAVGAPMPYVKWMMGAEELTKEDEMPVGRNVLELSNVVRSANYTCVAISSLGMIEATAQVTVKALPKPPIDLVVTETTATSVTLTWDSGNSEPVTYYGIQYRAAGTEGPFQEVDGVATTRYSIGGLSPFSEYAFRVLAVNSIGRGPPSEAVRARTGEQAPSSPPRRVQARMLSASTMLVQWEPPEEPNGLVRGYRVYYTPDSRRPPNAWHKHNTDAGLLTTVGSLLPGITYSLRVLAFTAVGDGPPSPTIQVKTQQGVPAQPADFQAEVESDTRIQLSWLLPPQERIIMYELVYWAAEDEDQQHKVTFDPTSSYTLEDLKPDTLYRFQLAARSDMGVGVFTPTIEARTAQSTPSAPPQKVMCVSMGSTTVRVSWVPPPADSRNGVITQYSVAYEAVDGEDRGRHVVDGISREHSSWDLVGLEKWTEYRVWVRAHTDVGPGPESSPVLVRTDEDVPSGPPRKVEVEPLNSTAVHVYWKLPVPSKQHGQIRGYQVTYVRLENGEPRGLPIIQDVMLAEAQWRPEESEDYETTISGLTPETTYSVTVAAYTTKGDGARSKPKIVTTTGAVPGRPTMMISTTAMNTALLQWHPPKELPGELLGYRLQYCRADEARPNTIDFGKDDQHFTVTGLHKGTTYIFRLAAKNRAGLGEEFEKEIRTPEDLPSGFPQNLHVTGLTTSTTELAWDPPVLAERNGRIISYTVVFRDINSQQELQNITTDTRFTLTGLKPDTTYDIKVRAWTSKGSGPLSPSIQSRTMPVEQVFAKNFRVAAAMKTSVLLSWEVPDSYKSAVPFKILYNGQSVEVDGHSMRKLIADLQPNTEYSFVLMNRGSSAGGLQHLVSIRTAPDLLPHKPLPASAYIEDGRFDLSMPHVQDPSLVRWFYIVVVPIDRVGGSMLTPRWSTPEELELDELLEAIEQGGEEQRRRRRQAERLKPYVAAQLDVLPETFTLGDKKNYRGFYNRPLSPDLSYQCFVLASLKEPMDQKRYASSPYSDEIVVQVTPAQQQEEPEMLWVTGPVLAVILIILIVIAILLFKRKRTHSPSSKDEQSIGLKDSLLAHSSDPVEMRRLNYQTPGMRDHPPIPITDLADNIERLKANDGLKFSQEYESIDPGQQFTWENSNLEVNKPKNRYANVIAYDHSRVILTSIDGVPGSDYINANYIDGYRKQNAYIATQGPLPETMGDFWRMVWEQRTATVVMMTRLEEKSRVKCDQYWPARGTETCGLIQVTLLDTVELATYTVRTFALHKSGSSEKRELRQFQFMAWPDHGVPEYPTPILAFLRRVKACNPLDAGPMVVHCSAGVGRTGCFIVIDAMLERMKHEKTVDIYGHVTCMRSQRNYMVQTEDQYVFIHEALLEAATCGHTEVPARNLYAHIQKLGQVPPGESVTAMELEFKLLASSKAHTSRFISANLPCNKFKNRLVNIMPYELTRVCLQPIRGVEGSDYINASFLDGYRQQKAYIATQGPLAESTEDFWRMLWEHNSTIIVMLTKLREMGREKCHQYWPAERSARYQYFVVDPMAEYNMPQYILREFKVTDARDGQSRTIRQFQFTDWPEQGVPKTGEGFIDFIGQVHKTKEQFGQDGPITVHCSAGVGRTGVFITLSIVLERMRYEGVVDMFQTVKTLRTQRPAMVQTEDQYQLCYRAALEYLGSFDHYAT

In another experiment the target is SORCS2-GFP (UniProt Q96PQ0). The experiment is described as above.
A further experiment addresses T2, SORCS3-GFP (UniProt Q9UPU3).
T2 sequence: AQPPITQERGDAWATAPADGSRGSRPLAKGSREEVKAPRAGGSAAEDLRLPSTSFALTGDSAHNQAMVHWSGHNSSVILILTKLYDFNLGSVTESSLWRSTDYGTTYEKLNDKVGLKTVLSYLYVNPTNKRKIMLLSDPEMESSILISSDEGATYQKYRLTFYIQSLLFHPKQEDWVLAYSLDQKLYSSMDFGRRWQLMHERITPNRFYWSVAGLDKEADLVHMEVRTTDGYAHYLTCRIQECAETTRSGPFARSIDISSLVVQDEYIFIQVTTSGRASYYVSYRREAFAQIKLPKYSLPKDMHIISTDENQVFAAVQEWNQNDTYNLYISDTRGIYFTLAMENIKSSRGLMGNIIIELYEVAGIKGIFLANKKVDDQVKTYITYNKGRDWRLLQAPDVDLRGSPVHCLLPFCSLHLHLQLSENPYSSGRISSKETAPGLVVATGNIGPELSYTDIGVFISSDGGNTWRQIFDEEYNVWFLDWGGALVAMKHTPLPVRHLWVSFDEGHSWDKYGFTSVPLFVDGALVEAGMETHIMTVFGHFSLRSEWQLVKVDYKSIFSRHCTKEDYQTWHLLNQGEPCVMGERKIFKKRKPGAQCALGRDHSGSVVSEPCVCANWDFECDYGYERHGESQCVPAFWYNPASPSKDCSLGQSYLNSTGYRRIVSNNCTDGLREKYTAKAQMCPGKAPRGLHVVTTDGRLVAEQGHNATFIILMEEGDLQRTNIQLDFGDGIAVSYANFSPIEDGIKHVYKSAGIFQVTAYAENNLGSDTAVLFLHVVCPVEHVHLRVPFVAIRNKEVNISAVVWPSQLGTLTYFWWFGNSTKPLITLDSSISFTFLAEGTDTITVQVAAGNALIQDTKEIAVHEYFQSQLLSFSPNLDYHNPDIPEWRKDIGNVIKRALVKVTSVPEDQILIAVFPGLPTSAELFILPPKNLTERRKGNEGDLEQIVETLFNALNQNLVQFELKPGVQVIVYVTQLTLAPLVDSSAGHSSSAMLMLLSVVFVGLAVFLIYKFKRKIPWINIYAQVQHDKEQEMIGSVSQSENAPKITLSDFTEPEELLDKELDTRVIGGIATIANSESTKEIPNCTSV
Described as above.

The next experiment addresses Sortilin-GFP (UniProt Q99523). The experiment is described as above.
The target of experiment [7] is human p75 neurotrophin receptor-GFP (human) (UniProt P08138). The experiment is described as above.
Experiment [8] has the same target. In words: flow cytometry on cells; high-throughput cell-cell screen: HEK293F query cells (C-terminal mCherry fusion) mixed 1:1 in 96-well format with cells each expressing one member of the Ig/TNFR superfamily library (C-terminal GFP); double-positive events as % bound; PBS 0.2% BSA, pH 7.4.
Experiment [9] concerns the target p75^NTR F136D-GFP (human) (UniProt P08138). Nature of the experiment: flow cytometry on cells; cell-cell conjugates: cells expressing p75NTR-GFP point mutants against cells expressing PTPRF-mCherry.
Experiment [10] has as its target p75^NTR L165A-GFP (human) (UniProt P08138). The description is as above.
Experiment [11] addresses p75^NTR P150A-GFP (human) (UniProt P08138). Described as above.
Experiment [12] addresses p75^NTR P150D-GFP (human) (UniProt P08138). The experiment is described as above.
The target in experiment [13] is p75^NTR S137A-GFP (human) (UniProt P08138). Described as above.
The target in experiment [14] is p75^NTR S137D-GFP (human) (UniProt P08138). The experiment is described as above.
Experiment [15] concerns the target full-length human p75 neurotrophin receptor fused at the cytoplasmic C-terminus to GFP (human) (UniProt P08138). Nature of the experiment: flow cytometry on cells; cell-cell conjugates: cells expressing the mCherry-tagged query mixed with cells individually expressing GFP-tagged members of the human Ig and TNFR superfamily library; double-positive events; PBS 0.2% BSA, pH 7.4.

These are yes or no findings as the source states them, for the method shown. Some entries that bind do so weakly or less than the wild type. For part of these data: Where a sequence is shown, tags or fusion partners need not be part of it.

As for “B7-1–Fc (from UniProt P33681 35-233) (Fc fusion)”, the binding entry in experiment [1], in [2] and in experiment [3] was “binds” in each case.
As for “hB7-1 I92D–mCherry (from UniProt P33681 35-288) (ligand)”, the binding result in experiment [4] is given as “binds”.
For “hB7-1N82E-mIgG2A (from UniProt P33681 35-233) (Fc fusion)”, the binding result in experiment [5] is listed as “no binding (tested: 1.2 µM)”.
In the case of “human B7-1-mCherry fusion protein (from UniProt P33681 35-288) (ligand)”, the binding entry in experiment [6] is “binds”; in the experiment with mCD28-GFP (mouse), “binds”; with mCTLA4-GFP (mouse), “binds”; with SORCS1-GFP, “no binding”; with SORCS2-GFP, “no binding”; with SORCS3-GFP it was “no binding”. Besides, the binding result in the experiment with Sortilin-GFP was “no binding”; in [7], “binds”; in experiment [8] it was “binds”.
On to “protein tyrosine phosphatase receptor type F (PTPRF) (from UniProt P10586 30-1907)”, for which the binding result in experiment [9], in experiment [10], in experiment [11], in [12], in experiment [13] and in experiment [14] was “binds” in each case. Also, in [15], the binding result is given as “binds”.

These data come from article PMC9663165.
